Among all 330,000 compounds or so, about 80 (0.02%) were called active. The shares of active, inactive and inconclusive entries below differ from those in the screen. Calls come from the whole dose curve; as a rule, active = well fitted activation curve with a large enough effect; inconclusive = small, poorly fitted or top-dose-only effect; inactive = flat fitted curve, though single readings scatter. No potency is given beside an inconclusive call; the fits are too rough.
target: Beta-2 adrenergic receptor (Homo sapiens) (UniProt P07550); assay: qHTS assay of beta-arrestin-biased ligands of beta2-adrenergic receptor; conditions: beta-arrestin recruitment to beta2AR, cell-based reporter; series mostly up to 46.1 µM; activation: at the top concentration; note: nearly all actives have a fitted effect of over 65% in size;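 for activation: 0% = DMSO controls and full agonism = EC100 isoproterenol or metaproterenol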
In short: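 Agonism was measured as beta-arrestin recruitment to recombinant beta2-AR, releasing tTA to drive luciferase. Cells were exposed for 18 hr at 37 degrees C to a series up to 46 microM. %Activity from corrected luminescence gave concentration-response curves.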
Potency is the fitted concentration of half-maximal effect; tags give direction and shape of the fitted curve.

UniProt P07550, sequence (P07550 whole entry, looked up): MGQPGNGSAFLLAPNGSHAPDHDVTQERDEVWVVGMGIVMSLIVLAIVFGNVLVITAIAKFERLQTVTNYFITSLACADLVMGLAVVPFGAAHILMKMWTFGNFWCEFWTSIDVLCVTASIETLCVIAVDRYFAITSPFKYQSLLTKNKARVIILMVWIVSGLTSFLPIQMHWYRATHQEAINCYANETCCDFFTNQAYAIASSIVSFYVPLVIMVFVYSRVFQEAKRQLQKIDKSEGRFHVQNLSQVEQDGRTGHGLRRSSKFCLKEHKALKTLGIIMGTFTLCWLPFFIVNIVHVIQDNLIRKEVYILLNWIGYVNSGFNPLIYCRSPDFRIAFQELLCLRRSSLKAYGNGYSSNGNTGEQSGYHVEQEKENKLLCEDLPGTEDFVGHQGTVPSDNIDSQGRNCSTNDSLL

SMILES | Potency | activation
Cc1ccc(S(=O)(=O)N2CCN(C(C)C(=O)NCC(C)c3ccccc3)CC2)cc1 (configuration not stated) | inconclusive [rising, single point] | –
C/C(=N\Nc1ncc(Cl)cc1Cl)c1cccs1 | inconclusive [rising, single point] | –
COC(=O)c1ccccc1NC(=O)Nc1cc(C)ccn1 | – | inactive: -0.686%
CC(/C=C/c1ccccc1)=N\NC(N)=S | active: 8.91 µM | –
COc1ccccc1C(=O)NC(=S)Nc1ccc(N2CCN(C(=O)c3ccco3)CC2)cc1 | – | inactive: -0.113%
Cc1ccc([N+](=O)[O-])cc1N=Nc1c(-c2ccc([N+](=O)[O-])cc2)[nH]n(C(N)=S)c1=O | active: 0.708 µM | –
CC1(C)Cc2c(sc3nc(-c4cccs4)n(N)c(=O)c23)CO1 | – | inactive: 0.592%
C/C(=N\NC(=O)c1ccccc1[N+](=O)[O-])c1c(O)cc(C)oc1=O | inconclusive [rising, single point] | –
CC(C)N1C(=O)c2ccccc2C1C(=O)NCCc1ccccc1 (configuration not stated) | – | inactive: 4.91%
COC(=O)N1C(=O)[C@@](c2ccccc2)(C2CCCCC2)N1C(=O)OC | inconclusive [rising, single point] | –
C=C(C)CNC(=S)NNC(=O)c1ccco1 | inconclusive [rising, single point] | –
Cc1[nH]c2ccccc2c1C(=O)C(C)OC(=O)c1ccc(NC(=O)CC#N)cc1 (configuration not stated) | inconclusive [rising, single point] | –
Cc1ccc(CSCC(=O)N(C)CC(=O)Nc2ccc(Br)cc2C)cc1 | inconclusive [rising, single point] | –
CC1=NN(C(N)=S)C(=O)C1N=Nc1c(C)cc(C)cc1C (configuration not stated) | inconclusive [rising, partial curve, poor fit] | –
Cc1ccc(SCCNC(=O)C(CO)(CO)CO)cc1 | – | inactive: 0.214%
CCC(C)NC(=O)c1oc2ccc(S(=O)(=O)N3CCC4(CC3)OCCO4)cc2c1C (configuration not stated) | – | inactive: -0.215%
COc1ccc(C[C@@H]2CN3C(=NC[C@@H]3Cc3ccc(O)cc3)N2C[C@H](C)NC(=O)CCC2CCCCC2)cc1 | inconclusive [activator, partial curve] | –
CCOC(=O)c1[nH]cnc1C(=O)Nc1ccc(F)cc1 | – | inactive: -0.111%
CC(=Nc1ccccc1O)c1sc2ccccc2c1O | inconclusive [rising, single point] | –
CCOC(=O)c1sc(NC(=O)CSc2nnc(C(C)C)n2C)nc1C | inconclusive [rising, single point] | –
NS(=O)(=O)c1ccc(Nc2ccccc2)c([N+](=O)[O-])c1 | – | inactive: -0.329%
O=C(O)c1nn(-c2ccccc2)nc1-c1nn(-c2ccccc2)nc1C(=O)O | – | inactive: -0.817%
COc1cc(OC)c(NS(=O)(=O)c2cc(C(=O)OC(C)C(=O)NC3CC3)c(Cl)cc2Cl)cc1Cl (configuration not stated) | inconclusive [rising, single point] | –
COc1cc(C(=S)N2CCOCC2)ccc1OS(=O)(=O)c1ccccc1[N+](=O)[O-] | – | inactive: -0.65%

SMILES | Potency | activation
COc1ccccc1/C(C)=N/NC(=S)NCc1ccccc1 | inconclusive [rising, single point] | –
C=CCn1cc(C(=O)OC)c(=O)c2cc(S(=O)(=O)N3CCC(C)CC3)ccc21 | – | inactive: -0.518%
Cc1ccc(NS(=O)(=O)c2ccc3c(c2)C(=O)c2ccccc2C3=O)c(C)c1 | – | inactive: -0.633%
CNS(=O)(=O)c1cc(NC(=O)c2cnc(SC)n2-c2ccccc2)ccc1C | inconclusive [rising, single point] | –
Fc1cccc(F)c1/C=N/NC(=S)Nc1cccnc1 | inconclusive [rising, single point] | –
Cc1ccc(CCC(=O)Nc2ccc([N+](=O)[O-])cc2)o1 | – | inactive: -0.549%
CC1S/C(=N/N=C2CCCCC2)NC1=O (configuration not stated) | inconclusive [rising, single point] | –
COc1nc(OC)nc(Oc2ccc([N+](=O)[O-])cc2Cl)n1 | inconclusive [rising, single point] | –
S=C1SCN(Cc2ccco2)CN1Cc1ccco1 | inconclusive [rising, single point] | –
O=C(NCCN1CCOCC1)c1cc(Br)ccc1Cl | inconclusive [rising, single point] | –
CC1=NN(C(N)=S)C(=O)C1N=Nc1cccc(C(=O)O)c1 (configuration not stated) | – | inactive: -0.132%
C=CCNC(=S)Nc1cc(C)ccn1 | inconclusive [rising, single point] | –
Cc1ccc(CONC(=O)c2ccccc2Cl)cc1 | inconclusive [rising, single point] | –
CC(C)N(Cc1cc2ccccc2[nH]c1=O)C(=O)C1CCCCC1 | inconclusive [rising, single point] | –
O=[N+]([O-])c1ccccc1C1Nc2cccc3cccc(c23)N1 | inconclusive [rising, full curve, poor fit] | –
COc1ccc(CCN(C)CCCC(C#N)(c2cc(OC)c(OC)c(OC)c2)C(C)C)cc1OC (configuration not stated) | inconclusive [rising, single point] | –
C=CCNC(=S)NNC(=O)COc1ccc(Cl)cc1Cl | inconclusive [rising, single point] | –
S=C(NCc1ccccn1)Nc1ccc(Cl)c(Cl)c1 | inconclusive [rising, single point] | –
Cc1cc(NC(=O)CSc2nnnn2-c2ccccc2C)no1 | inconclusive [rising, single point] | –
Cc1c2cnn(CC(=O)Nc3c(F)c(F)cc(F)c3F)c(=O)c2c(C)n1Cc1ccccc1F | – | inactive: 2.86%
O=C(O)/C=C/c1nc(-c2ccccc2)n2ccccc12 | inconclusive [rising, single point] | –
CCOC(=O)c1ccccc1NC1c2ccccc2C(=O)N1C1CCN(C(=O)OCC)CC1 (configuration not stated) | inconclusive [rising, single point] | –
CCC(=O)N1CCC2(CC1)Oc1ccc(Cl)cc1C(=O)C21CC(c2ccccc2)=NO1 (configuration not stated) | inconclusive [rising, single point] | –

Source: PubChem BioAssay AID492947 (National Center for Advancing Translational Sciences (NCATS), 2010)
